Screen size: about 310,000 compounds; about 2,200 (0.71%) showed an effect of 50% or more. Effects have a minus sign here. This is one part of the list.
biological target: human ether-à-go-go-related gene (hERG) potassium channel (human, UniProt Q12809); assay: primary screen, population patch clamp on CHO cells stably expressing hERG
Sequence (Q12809 whole entry, looked up): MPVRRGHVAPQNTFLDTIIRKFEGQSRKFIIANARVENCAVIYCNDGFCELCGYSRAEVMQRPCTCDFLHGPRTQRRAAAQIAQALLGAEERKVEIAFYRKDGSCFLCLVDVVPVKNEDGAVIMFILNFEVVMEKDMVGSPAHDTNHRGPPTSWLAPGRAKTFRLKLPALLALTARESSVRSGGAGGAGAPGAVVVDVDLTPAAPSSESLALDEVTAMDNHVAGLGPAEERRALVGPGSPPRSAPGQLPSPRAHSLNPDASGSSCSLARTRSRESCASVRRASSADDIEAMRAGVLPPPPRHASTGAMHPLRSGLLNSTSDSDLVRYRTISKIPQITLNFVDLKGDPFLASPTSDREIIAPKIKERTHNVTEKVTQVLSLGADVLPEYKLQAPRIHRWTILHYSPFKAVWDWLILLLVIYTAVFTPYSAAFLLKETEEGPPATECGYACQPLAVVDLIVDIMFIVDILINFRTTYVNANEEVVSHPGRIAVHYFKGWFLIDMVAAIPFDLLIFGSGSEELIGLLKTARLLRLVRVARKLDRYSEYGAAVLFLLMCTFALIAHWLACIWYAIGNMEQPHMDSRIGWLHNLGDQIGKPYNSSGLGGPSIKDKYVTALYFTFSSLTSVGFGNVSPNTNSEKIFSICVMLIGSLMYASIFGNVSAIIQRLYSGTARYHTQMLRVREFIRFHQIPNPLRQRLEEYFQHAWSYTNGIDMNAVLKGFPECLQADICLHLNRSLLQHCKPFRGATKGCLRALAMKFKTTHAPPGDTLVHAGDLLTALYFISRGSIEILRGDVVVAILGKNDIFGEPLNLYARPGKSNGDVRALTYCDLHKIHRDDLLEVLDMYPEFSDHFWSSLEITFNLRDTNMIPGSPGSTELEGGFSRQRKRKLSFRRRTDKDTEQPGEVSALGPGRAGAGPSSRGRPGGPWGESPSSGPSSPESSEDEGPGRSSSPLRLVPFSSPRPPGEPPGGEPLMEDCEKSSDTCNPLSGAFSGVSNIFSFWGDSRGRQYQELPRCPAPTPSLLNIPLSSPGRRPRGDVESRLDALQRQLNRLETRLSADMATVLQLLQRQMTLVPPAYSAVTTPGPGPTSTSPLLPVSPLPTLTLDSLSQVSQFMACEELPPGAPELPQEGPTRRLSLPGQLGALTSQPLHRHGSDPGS

SMILES | hERG current change (%, negative = inhibition) at 1uM [%]
COc1ccc(/C=C/C(=O)OCC(=O)NCCNC(=O)COC(=O)/C=C/c2ccc(OC)cc2)cc1 | 21.1
O=C(O)Cn1cc(/C=C2\C(=O)NC(=O)N(c3ccc(Cl)cc3)C2=O)c2ccccc21 | 14.7
CC(C)(C)OC(=O)CNC(=O)c1[nH]cnc1C(=O)N[C@@H](Cc1ccccc1)C(=O)OCc1ccccc1 | 8.27
CCOC(=O)/C=C1\NC(=O)CS1 | 17.1
O=C(CCNS(=O)(=O)c1ccc(Cl)cc1)Nc1ccncc1 | 15.3
COc1cccc(C2CC(c3cccs3)=NN2C(=O)CSc2nc3c(cnn3-c3ccc(F)cc3)c(=O)[nH]2)c1OC (stereo not shown) | 9.39
O=C(c1ccc(N2CCCC2=O)cc1)N1CCCCCC1 | 11.1
Cc1ccc(-n2nnnc2SCC(=O)Nc2ncc(Cc3ccccc3Cl)s2)cc1 | -3.4
O=C(c1cnn(Cc2ccccc2)c1)N1CCN(S(=O)(=O)/C=C/c2ccccc2)CC1 | -2.7
CCN(CC)c1ccc(/C=N/NC(=O)c2ccoc2C)c(O)c1 | 11.7
Cc1onc(-c2c(F)cccc2Cl)c1C(=O)NCc1ccc2c(c1)OCO2 | 14
O=C(NCc1ccncc1)c1cn(-c2ccccc2)nc1-c1cccnc1 | -16.6
COc1ccc(C2CC(=O)N(CCC[NH+](C)CCc3ccc(OC)c(OC)c3)C2)cc1.O=C([O-])C(=O)[O-] (stereo not shown) | -72.9
Cc1nnc(N(C)C(=O)c2cccnc2)s1 | 11.7
COc1cccc(C(=O)NC(=S)NCc2ccco2)c1 | 9.85
CC1CCN(CCCCOc2ccc([N+](=O)[O-])cc2)CC1 | -77.8
O=C(O)CN1C(=O)C2C3CC(C2C1=O)C1C(c2ccc(F)cc2)c2sc(=O)[nH]c2SC31 (stereo not shown) | 1.95
NC(=O)CSc1cn(Cc2cccc(F)c2)c2ccccc12 | 12.2
CCN(CC)C(C(=O)Nc1ccc(C(C)C)cc1)c1ccc2c(c1)OCO2 (stereo not shown) | 6.12
COc1cc(OC)cc(C(=O)NCC2CCCN(Cc3ccc(SC)cc3)C2)c1 (stereo not shown) | -34.6
Cc1nc(C)c(-c2ccc(SCC(=O)Nc3cccc(Cl)c3)nn2)s1 | 8.55
COc1ccc(-c2sc(NC(C)=O)nc2-c2ccccc2)cc1 | 16.7
Br.O=S(=O)(c1ccc(-c2csc(Nc3ccc(F)cc3)n2)cc1)N1CCCC1 | 2.89

SMILES | hERG current change (%, negative = inhibition) at 1uM [%]
COc1ccc(-c2nc(C#N)c(NCCN(C)C)o2)cc1 | 9.12
Cc1cc(C(=O)N2CCC(C(F)(F)F)n3nccc32)on1 (stereo not shown) | 7
CC(=O)Nc1ccc2c(c1)CN(c1cc(C)ccc1C)CO2 | 1.45
COc1ccc2cc(CN(CC3CCCO3)S(=O)(=O)c3ccc(C(C)=O)cc3)c(=O)[nH]c2c1 (stereo not shown) | -6.74
CCOC(=O)C(C)Sc1cnccn1 (stereo not shown) | 14.3
Cc1ccc(CNC(=O)C2CCCN(S(=O)(=O)c3ccc(-n4cnnn4)cc3)C2)cc1 (stereo not shown) | 2.87
O=C1CN(C(=O)COC(=O)CCNS(=O)(=O)c2ccc(Cl)cc2)c2ccccc2N1 | -5.53
O=C1CCC(=O)N1OCCCOc1ccc2c(c1)CCC2 | 10.8
COC(=O)C1(C)NC(c2ccc(F)cc2)C2C(=O)N(c3ccc(C)cc3)C(=O)C21 (stereo not shown) | 12.7
Cn1c(=O)c2c(ncn2CC(=O)OCC(=O)Nc2ccc(Cl)cc2)n(C)c1=O | 6.83
O=c1cc(CSc2nnc(C3CC3)n2Cc2ccccc2)nc2sccn12 | 10.6
CCCOc1ccc(C(CC(=O)O)NC(=O)c2cccs2)cc1 (stereo not shown) | 17.2
CCc1nn(CC(=O)NCCN2CCN(C)CC2)c(=O)c2cc3c(OC)cccc3n12 | 9.23
CC1=C(C(=O)Nc2ccc(C(=O)N3CCN(c4cccc(Cl)c4)CC3)cc2)SCCO1 | 5.5
CC(=O)c1sc(NC(=O)c2cccs2)nc1C | 18.6
Cc1ccc(Cn2nnnc2CN2CCC(n3nnc4ccccc43)CC2)cc1.Cl | -14.7
O=S(=O)(c1cccc(NC(=S)N2CCN(c3ccc(F)cc3)CC2)c1)C(F)F | 6.53
CCCCn1c(=O)c(C(=O)Nc2ccccc2)c(O)c2ccccc21 | 10.9
CCOc1ccccc1NC(=O)c1ccc(-n2cncn2)nc1 | 15.4
N#Cc1ccc(CN2CCN(C(=O)c3ccc(S(=O)(=O)NCc4ccco4)cc3)CC2)cc1 | -6.1
O=C(CCS(=O)(=O)c1cccs1)Nc1ccc(C(=O)NCc2ccc(F)cc2)cc1 | 17.9
Cc1ccccc1-n1c(SCC(=O)c2c(N)n(C3CC3)c(=O)[nH]c2=O)nnc1N1CCOCC1 | 2.27
CCOc1ccccc1OCC(=O)NCCc1ccc(S(N)(=O)=O)cc1 | 12.1

SMILES | hERG current change (%, negative = inhibition) at 1uM [%]
COC(=O)c1cc(S(=O)(=O)NCC(C)c2ccccc2)cn1C (stereo not shown) | 3.17
Cc1ccc(N2C(=O)c3oc4ccccc4c(=O)c3C2c2cccc(O)c2)nc1 (stereo not shown) | 2.95
C[C@@H]1NC(=O)OC1c1ccco1 (stereo partly shown) | 8.5
CCOC(=O)Cc1nnc(NC(=O)CSc2nnc3c(n2)[nH]c2ccccc23)s1 | 7.2
Cc1nsc(N)c1C(=O)O | 14.2
Cc1ccc(CC(=S)N2CCOCC2)cc1 | 11.6
CSCCC(NC(=O)C1CCCC1)c1nnc2ccccn12 (stereo not shown) | 13.1
Cc1c(-c2cc(C(=O)O)on2)cnn1C | 10.8
CCSc1nnc(NC(=O)c2csc3c2CCCC3)s1 | 7.57
CN(C)S(=O)(=O)c1ccc(Cl)c(NC(=O)c2ccncc2)c1 | -0.0585
Cn1c(=O)c2cc(S(=O)(=O)NC(C(=O)NCc3cccnc3)c3ccccc3)ccc2n(C)c1=O (stereo not shown) | 6.03
COc1ccc2oc(-c3cccc(NC(=O)CSc4ccc(Cl)cc4)c3)nc2c1 | 6.7
CC(OC(=O)CC1CC2CCC1C2)C(=O)Nc1ccc(C(N)=O)cc1 (stereo not shown) | 3.24
Cc1ccsc1C(=O)C1CCCN(Cc2cnn(C)c2)C1 (stereo not shown) | 16.1
CC(OC(=O)c1ncc(Cl)c(Cl)c1Cl)C(=O)NC1(C#N)CCCCC1 (stereo not shown) | 9.61
CS(=O)(=O)n1nc(OC(=O)c2cccs2)cc1N | 17.6
COc1ccc(OC)c(S(=O)(=O)Nc2c(C)cccc2C)c1 | 8.89
COC(=O)CSc1nn(-c2ccc(F)cc2)c(=S)s1 | 9.9
Cc1nc2ccccc2n1CCc1nc2c3ccccc3nc(SCC#N)n2n1 | -0.451
COc1ccc(NC(=O)c2cccnc2)c(OC)c1 | 4.36
CCc1nnc(NCC(=O)N2CCc3ccccc32)s1 | -5.38
O=C(N1CCOCC1)N(Cc1ccccc1)c1ccccn1 | 2.98
CC(C)OC(=O)NCCOC(=O)Nc1ccc(Cl)cc1 | 19.2

SMILES | hERG current change (%, negative = inhibition) at 1uM [%]
O=C(c1cccc(C(F)(F)F)c1)C1CCCN(Cc2cccc(OCCO)c2)C1 (stereo not shown) | -0.556
CCOC(=O)n1c(=O)oc2ccc(Cl)cc21 | 9.61
CC1CN(Cc2c(O)ccc3c(=O)c(-c4ccccc4Cl)coc23)CC(C)O1 (stereo not shown) | 11
O=C(Nc1cc2c(cc1Br)OCCO2)c1cccs1 | 21.4
O=C(CCCO)N/N=C/c1cc(Br)ccc1O | 3.99
Cc1cccc(OCC(=O)Nc2nnc(S(=O)(=O)N3CCCCCC3)s2)c1 | 11
COc1ccc(NC(=O)c2ccco2)cc1NC(=O)c1cc2ccccc2o1 | 8.65
O=C(NC1CCCCC1)N1CCSC1=Nc1ccccc1 | 3.66
COC(=O)Cc1ccc(N(Cc2ccccc2F)S(=O)(=O)c2ccc(C)cc2)cc1 | 9.64
COc1ccc(-c2cn[nH]c2C)cc1OC | 12.1
Cc1ccccc1CC(=O)N1CCCC1 | 4.48
Cc1cccc(Nc2cc(=O)[nH]c(=O)[nH]2)c1C | 6.12
CC(C)c1ccccc1NC(=S)NC(C)c1ccccc1 (stereo not shown) | 5.12
CCCC(=O)c1ccc(CP(=O)(OCC)OCC)o1 | 20.8
COC(=O)c1sccc1NC(=O)Nc1ccc(Cl)c(Cl)c1 | 19.4
COC(=O)c1ccccc1NC(=O)c1noc2c1CC(C(C)(C)C)CC2 (stereo not shown) | 4.8
O=C(NNS(=O)(=O)c1ccc([N+](=O)[O-])cc1)c1ccc2ccccc2c1O | 14.4
CC1CCc2sc(C(=O)NC3CCCCC3)cc2C1 (stereo not shown) | 3.37
CCOC(=O)c1csc(NC(=O)CN2CCOCC2)n1 | 11
O=C(NCc1ccco1)C1CCN(S(=O)(=O)Cc2ccccc2)CC1 | -0.482
O=C(Nc1ccnc(-c2ccncc2)n1)c1ccc(F)cc1 | 10.1
CCOP(=O)(OCC)C(NC(C)=O)C(=O)c1ccccc1 (stereo not shown) | 18.7

From article PMC4336329 (PLoS ONE, 2015)
